The data set relates to ATP. Kind of data set: switch fluorescence ratio, 500 uM ATP over buffer (Cy3 cluster intensity, sum of 5 cycles each) (fold (ratio)); higher = stronger signal-on switching upon ATP binding; sequences stand for … in TCGTCGGCAGCGTCAGATGTGTATAAGAGACAGTTTTTTTTTTTTTTTTTTTTTTTTT…TC. As to conditions: aptamer strand: ATP DNA aptamer (quencher-CACCTGGGGGAGTATTGCGGAGGAAGG + anchor), 100 nM annealed; ATP concentration: 500 uM; one replicate. In short, it runs like this:
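Per cluster, summed Cy3 intensity from the target cycles was divided by that from the buffer cycles to give the fluorescence ratio, then averaged per switch-domain sequence. Clusters outside 100-1000 RFU were excluded. The Cy3-labelled switching-strand clusters, on a modified Illumina MiSeq flow-cell, were annealed to 100 nM quencher-labelled ATP aptamer and imaged in selection buffer, then after 15 min with 500 uM ATP at 22 °C, for five cycles with NaOH stripping and re-annealing between them.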

Values marked as one replicate rest on one cluster of the flow cell; about a third of the high ones do not repeat.
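Further: ATP exposure 15 min at 22 °C before imaging.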

Consider AAGGCAAGAG, for which the switch fluorescence ratio was found to be 1.33.

As for ACCTATATAC, the switch fluorescence ratio worked out at 1.58.

AAACGAGACT: the switch fluorescence ratio amounted to 1.04.

For the sequence TGCCGAATG, the switch fluorescence ratio was determined as 0.976.

For the sequence GACGGCATGT, the switch fluorescence ratio stood at 0.978.

For GCCGTGCTAC, the switch fluorescence ratio came to 1.09.

Regarding ACCTCTGTGC, the switch fluorescence ratio worked out at 1.2.

For the sequence GTCCCTCTCC, the switch fluorescence ratio is 1.07.

Take TGCTAGGATA: the switch fluorescence ratio amounted to 0.993.

On to AAAGTGCGTC, for which the switch fluorescence ratio stood at 0.991.

With GAGGCATTCA, the switch fluorescence ratio was 1.03.

Consider TTGCGAGGCT, for which the switch fluorescence ratio was 1.04.

CGTAATAGGC: the switch fluorescence ratio amounted to 1.45.

For GGTACCTAGA, the switch fluorescence ratio was found to be 1.03.

Consider TTTTGCTGAA, for which the switch fluorescence ratio was 1.

With AAGGGGACG, the switch fluorescence ratio stood at 1.02.

Take GTCCCTCTAG: the switch fluorescence ratio worked out at 1.06.

Take AGTGTCACGG: the switch fluorescence ratio amounted to 0.932.

Consider CGGAATCGGA, for which the switch fluorescence ratio was found to be 0.995.

Regarding TGAAGACGGG, the switch fluorescence ratio came out at 0.99.

Turning to AATTCTGCTC, the switch fluorescence ratio stood at 0.974.

On to TGGGATCATG, for which the switch fluorescence ratio was determined as 0.961.

As to TTGAGGAGTA, the switch fluorescence ratio was 1.04.

In the case of CGGAATTCA, the switch fluorescence ratio turned out to be 1.02.

As for TCTTTGGTGT, the switch fluorescence ratio turned out to be 1.03.

For CTTTACATGT, the switch fluorescence ratio worked out at 1.03.

As to AAAGCTCACG, the switch fluorescence ratio came out at 1.11.

CTTACCTGTA: the switch fluorescence ratio amounted to 1.02.

As for TTAGCAAGCT, the switch fluorescence ratio was 1.11.

In the case of GAACTTAGCC, the switch fluorescence ratio was 1.05.

TGTTCGTGCG: the switch fluorescence ratio turned out to be 1.04.

Take TTGTGGGCGT: the switch fluorescence ratio was 0.998.

As to CGACCCGCT, the switch fluorescence ratio is 1.21.

On to TGAGGTTTCG, for which the switch fluorescence ratio turned out to be 1.

Take AACTATTTT: the switch fluorescence ratio is 1.02.

CTAGACATCG: the switch fluorescence ratio worked out at 1.1.

As to TGGGGCAGAG, the switch fluorescence ratio came to 0.971.

As to CTTCTCAGCA, the switch fluorescence ratio turned out to be 1.88.

Consider TGTTCTGTGG, for which the switch fluorescence ratio worked out at 0.971.

Consider TACCTATAGT, for which the switch fluorescence ratio was 1.04.

As to GATGGAATAG, the switch fluorescence ratio is 1.47.

As to ACGTCATCTG, the switch fluorescence ratio is 1.04.

Consider ATCGGACGA, for which the switch fluorescence ratio amounted to 1.09.

As to GCTAGTCA, the switch fluorescence ratio came out at 0.979.

As to TACGGAAGAT, the switch fluorescence ratio was 1.08.

Regarding TTTCGTTTAA, the switch fluorescence ratio was 0.989.

For CTGTAATTAG, the switch fluorescence ratio turned out to be 0.977.

As for GATTAAAAGC, the switch fluorescence ratio stood at 1.06.

As to TCTGCCACCA, the switch fluorescence ratio is 1.01.

Regarding CTTGCATTGC, the switch fluorescence ratio stood at 2.12.

For the sequence ATGCCGAACG, the switch fluorescence ratio amounted to 1.06.

Take TTTGTCCAGG: the switch fluorescence ratio was determined as 1.25.

In the case of GAAATATTAT, the switch fluorescence ratio is 0.996.

Turning to CTTCGAGGTG, the switch fluorescence ratio stood at 1.03.

In the case of TGTATTTG, the switch fluorescence ratio was determined as 1.

In the case of GTGGTATACT, the switch fluorescence ratio came to 1.04.

For CTTTTCTACG, the switch fluorescence ratio was 1.11.

On to CGGAGGGCGA, for which the switch fluorescence ratio was determined as 1.09.

For the sequence TGTTAGTTTC, the switch fluorescence ratio was found to be 0.981.

On to AAGGAAATTG, for which the switch fluorescence ratio came to 1.01.

With ATGCAACGA, the switch fluorescence ratio was 1.02.

As to CCCGTCTTAG, the switch fluorescence ratio was found to be 0.966.

Take GCCTATGATG: the switch fluorescence ratio was found to be 0.972.

As to CAACAGGGAG, the switch fluorescence ratio was found to be 1.06.

For CACAATGCGA, the switch fluorescence ratio worked out at 1.85.

For the sequence AGAGCTGATG, the switch fluorescence ratio was 0.984.

On to ACGCCTACTG, for which the switch fluorescence ratio was 1.38.

On to GGAATGAGGC, for which the switch fluorescence ratio was determined as 1.02.

With TTTAAACATG, the switch fluorescence ratio was 1.06.

With GCTGGCCTTA, the switch fluorescence ratio was found to be 1.02.

With CAGGGACCGC, the switch fluorescence ratio was found to be 1.06.

TCCCTTCCTG: the switch fluorescence ratio turned out to be 1.67.

As for TGGACCTAGG, the switch fluorescence ratio was 1.07.

For GACGAAACAG, the switch fluorescence ratio was 1.12.

As for AGGATTATGG, the switch fluorescence ratio is 1.01.

TTCATGGCAG: the switch fluorescence ratio turned out to be 1.04.

Turning to GAGAGAGAGA, the switch fluorescence ratio came to 1.04.

Regarding TATATGCTGC, the switch fluorescence ratio is 1.05.

The values above are taken from the supplement of paper PMC10126150.
